Laboratory results published in paper PMC3884107 (PLoS ONE, 2013).

Key:
Settings in all cases: both partners purified
[1] = molecular target: T1, MSP 689R (active two-chain macrophage stimulating protein; Q19-G711; C672A) (human, UniProt P26927 19-483; P26927 484-711, C672A); test: BLI; RON-Fc (10 µg/ml) loaded on anti-human IgG Fc biosensors, Octet RED384; MSP, MSP β or scMSP 75-4.7 nM, 400 s association, 400 s dissociation, 30°C; global 1:1 fit, KD = koff/kon
T1 construct: MSP alpha-chain of human macrophage stimulating protein: from Q19 of the pro-MSP construct to R483 (cleavage between R483 and V484); disulfide-linked to the beta-chain; Made as single-chain pro-MSP (Q19-G711; C672A; C-terminal 6-His) and cleaved by sHepsin; For the radioligand assay part of the protein was iodinated with 125I (Iodogen); also called HGFL; MST1; source: CHO cells, transiently …

[2] = molecular target: T2, MSP 689C (active two-chain macrophage stimulating protein; Q19-G711; C672A; 689C) (human, UniProt P26927 19-483; P26927 484-711, C672A | 689R to 689C); test: as above
T2 construct: MSP alpha-chain of human macrophage stimulating protein: from Q19 of the pro-MSP construct to R483 (cleavage between R483 and V484); disulfide-linked to the beta-chain; Made as single-chain pro-MSP (Q19-G711; C672A; C-terminal 6-His) and cleaved by sHepsin; For the radioligand assay part of the protein was iodinated with 125I (Iodogen); source: CHO cells, transiently transfected, secreted; …

[3] = molecular target: T1, MSP 689R (active two-chain macrophage …); test: SPR; RON-Fc captured (50-100 RU) on immobilised anti-human Fc surfaces, CM5 chip, Biacore 3000; MSP, MSP β or scMSP injected 500-3.9 nM in HBS-P (10 mM HEPES pH 7.5, 150 mM NaCl, 0.005% P20), 25°C, 30 µl/min; global 1:1 Langmuir fit, KD = koff/kon
[4] = molecular target: T2, MSP 689C (active two-chain macrophage …); test: as above

B1: RON-Fc (human RON Sema, PSI and IPT1 domains, […], Fc fusion with human IgG1) (Fc fusion)
chain: not shown
notes: human RON (Recepteur d'Origine Nantais, MST1R), Sema, PSI and IPT1 domains, […]; also called RON-Fc fusion protein; source: CHO cells; purified (MabSelect Sure, SEC)
A Kd [1] of 9.9 nM, a koff [1] of 0.0025 s⁻¹ and a kon [1] of 250000 M⁻¹ s⁻¹ were found for B1 in this work. It also gave a Kd [2] of 9.4 nM, a koff [2] of 0.0042 s⁻¹ and a kon [2] of 430000 M⁻¹ s⁻¹. For the same binder, the Kd [3] was 6.4 nM, the koff [3] was 0.0033 s⁻¹ and the kon [3] was 510000 M⁻¹ s⁻¹. For the same binder, the Kd [4] was 9.6 nM, the koff [4] was 0.0002 s⁻¹ and the kon [4] was 17000 M⁻¹ s⁻¹.
